Measurements: publication PMC2191977 (The Journal of Experimental Medicine, 1995)
Residue numbers refer to the chain shown, from its start.

Assays:
Experiment in all cases: flow cytometry on cells
B7 L179V = molecular target: T1, B7 L179V (mouse, UniProt Q00609 38-306, L179V)
T1 sequence (looked up): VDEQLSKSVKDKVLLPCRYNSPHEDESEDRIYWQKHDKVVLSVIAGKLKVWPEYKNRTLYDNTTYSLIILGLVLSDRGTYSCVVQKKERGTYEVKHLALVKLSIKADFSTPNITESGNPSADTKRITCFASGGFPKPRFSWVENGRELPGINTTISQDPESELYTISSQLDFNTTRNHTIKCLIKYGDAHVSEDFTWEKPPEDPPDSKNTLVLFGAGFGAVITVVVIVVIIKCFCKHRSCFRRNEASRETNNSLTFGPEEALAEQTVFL

B7 E199A = molecular target: T2, B7 E199A (mouse, UniProt Q00609 38-306, E199A)
T2 sequence (looked up): T1 sequence (looked up) with V142L, E162A

[1] = molecular target: T3, B7 QDP/LEH (Q194L, D195E, P196H) (mouse, UniProt Q00609 38-306, Q194D195P196>LEH)
T3 sequence (looked up): T1 sequence (looked up) with V142L, Q157L, D158E, P159H

B7 P172A = molecular target: T4, B7 P172A (mouse, UniProt Q00609 38-306, P172A)
T4 sequence (looked up): T1 sequence (looked up) with P135A, V142L

B7 L200A = molecular target: T5, B7 L200A (mouse, UniProt Q00609 38-306, L200A)
T5 sequence (looked up): T1 sequence (looked up) with V142L, L163A

B7 E180D = molecular target: T6, B7 E180D (mouse, UniProt Q00609 38-306, E180D)
T6 sequence (looked up): T1 sequence (looked up) with V142L, E143D

% wild-type B7 binding (normalised to anti-B7 mAb 10.16A.1) (B7 L179V): 40%
MF (mean fluorescence, control subtracted) (B7 L179V): 274 MF
% wild-type B7 binding (normalised to anti-B7 mAb 10.16A.1) (B7 E199A): 63%
MF (mean fluorescence, control subtracted) (B7 E199A): 108 MF
% wild-type B7 binding (normalised to anti-B7 mAb 10.16A.1) [1]: 13%
MF (mean fluorescence, control subtracted) [1]: 36 MF
% wild-type B7 binding (normalised to anti-B7 mAb 10.16A.1) (B7 P172A): 3%
MF (mean fluorescence, control subtracted) (B7 P172A): 8 MF
% wild-type B7 binding (normalised to anti-B7 mAb 10.16A.1) (B7 L200A): 85%
MF (mean fluorescence, control subtracted) (B7 L200A): 142 MF
% wild-type B7 binding (normalised to anti-B7 mAb 10.16A.1) (B7 E180D): 83%
MF (mean fluorescence, control subtracted) (B7 E180D): 622 MF
B1: CTLA4Ig (Fc fusion)
chain: not shown
